This is an account of results in PubChem BioAssay AID1508623 (National Center for Advancing Translational Sciences (NCATS), 2021).

The whole screen tested about 48,000 compounds, of which about 450 (0.94%) were called active. Inconclusive results (about 19%) are left out. The call rests on the fitted dose curve; in most records, active means well fitted inhibition curve with a large enough effect; inconclusive means small, poorly fitted or top-dose-only effect; inactive means no such curve, though single readings can be large or run the other way. The list shows a part of the results.

A short description of this test: Primary qHTS for Identification of Small Molecule Inhibitors of Huntingtin Promoter Activity. Further: nearly all actives have a fitted effect of over 50% in size. The note with it: HEK293 HTT promoter firefly luciferase reporter (activity 0% = vehicle and -100% = no light), 24 h; series mostly up to 57.5 µM; activity change, negative = inhibition: at the top concentration. The essentials:
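Luminescence was read after Dual-Glo reagent and a 10 min room-temperature incubation. Values were normalized to vehicle (0% activity) and zero RLU (-100% activity). Reporter HEK293 cells had been exposed to compounds (up to 57.5 uM final) for 24 h.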
As to `CCC(=O)N1CCc2cc(CNC(=O)Nc3ccc(OC)cc3OC)ccc21`, the “activity change, negative = inhibition” value is inactive: -22%. The same measure for `COc1ccccc1-c1cc(C(F)(F)F)nc(S(=O)(=O)CCCC(=O)Nc2cc(Br)ccc2O)n1`: inactive: 30.6%; for `O=C(CSc1nccn1Cc1ccccc1)NC1CCCC1`: inactive: 7.31%. The same measure for `CCCCC(=O)O[C@]1(C(=O)CO)CC[C@H]2[C@@H]3CCC4=CC(=O)CC[C@]4(C)[C@H]3[C@@H](O)C[C@@]21C`: inactive: -8.06%; for `CN(C)c1ccc(C(CNS(=O)(=O)c2cc(F)ccc2F)N2CCOCC2)cc1` (stereo not given): inactive: 1.52%.

Regarding `O=C(CSCc1ccc(F)cc1)N1CCN(c2ccccc2)CC1`, the “activity change, negative = inhibition” value was inactive: -0.284%. With `Cc1cc(C)c(Cn2c(=O)n(CCCCCC(=O)NCc3ccc4c(c3)OCO4)c(=O)c3sccc32)c(C)c1`, the “activity change, negative = inhibition” value was inactive: -0.98%. Then `COc1cccc(NC(=O)Cn2c(=O)n(-c3cccc(OC)c3)c(=O)c3c4c(sc32)CCCC4)c1`, with inactive: 0.238%; and `Cc1ccc(CN(C(=O)c2ccccc2Br)C2CCS(=O)(=O)C2)o1` (stereo not given), with inactive: -6.01%. The same measure for `O=C(Nc1ccc2oc(-c3ccc4ccccc4c3)nc2c1)c1cc(Br)ccc1Cl`: inactive: 15.8%. For `CC1CCC(NC(=O)c2ccc3c(c2)N(Cc2cccc(Cl)c2)C(=O)c2ccccc2S3=O)CC1` (stereo not given), the “activity change, negative = inhibition” value was inactive: 4.05%. Then `Cn1c(=O)c2c(SCC(=O)NCc3ccco3)nc(-c3ccccc3F)nc2n(C)c1=O`, with inactive: -4.62%; and `CCOc1ccccc1NC(=O)COc1cccc2c(=O)n(CCOC)ccc12`, with inactive: 0%.

With `O=C(CCCc1nc(-c2ccco2)no1)Nc1ccccc1[N+](=O)[O-]`, the “activity change, negative = inhibition” value is inactive: -7.53%.

Take `COc1cccc(-n2c(=O)c3c4c(sc3n(Cc3ccc(F)cc3Cl)c2=O)CCCC4)c1`: the “activity change, negative = inhibition” value was inactive: 19.5%.

As for `CCC1CCCCN1S(=O)(=O)c1ccc(N2CCCCS2(=O)=O)cc1` (stereo not given), the “activity change, negative = inhibition” value is inactive: -28.9%. Then `COc1ccc(-c2[nH]ncc2C(=O)NCc2cccc(F)c2)cc1`, with inactive: -28.3%. `COc1ccc(C2=NN(C(C)=O)C(c3cn(-c4ccccc4)nc3-c3cccs3)C2)cc1` (stereo not given): the “activity change, negative = inhibition” value is inactive: -26.3%. As to `CCOC(=O)c1ccc(NC(=O)c2c(C)oc3nc(C)nc(N4CCCC4)c23)cc1`, the “activity change, negative = inhibition” value was inactive: -3%. The same measure for `Cc1ccc(-n2nc(-c3ccc(F)cc3)c3cnc4cc5c(cc4c32)OCO5)cc1C`: inactive: -13.4%; for `COCCNC(=O)c1ccc2nc(CCc3ccccc3)oc2c1`: inactive: 23.8%. On to `CCc1ccc(NC(=O)CC(c2ccc(C)cc2)N2Cc3ccccc3C2=O)cc1` (stereo not given), for which the “activity change, negative = inhibition” value was inactive: -10.1%. The same measure for `Cc1ccc(Cl)cc1N1CCN(C(=O)CCSCc2ccccc2F)CC1`: inactive: -22.6%; for `Cc1c(C(=O)Nc2ccc(Br)cc2F)oc2ccc(S(=O)(=O)N3CCC4(CC3)OCCO4)cc12`: inactive: -15.4%.

For the compound `Cc1cc(OCC(=O)NC(Cc2c[nH]c3ccccc23)C(=O)O)ccc1Cl` (stereo not given), the “activity change, negative = inhibition” value was inactive: -4.87%. The same measure for `Cc1oc2ncn(C)c(=O)c2c1C(=O)Nc1ccc(F)cc1`: inactive: -10.5%; for `CCc1nn(CC(=O)NCCc2ccc(Cl)cc2)c(=O)c2cc3ccccc3n12`: inactive: 7.7%. The same measure for `Cc1cc(N2CCN(c3ccc(F)cc3)CC2)n2nc(-c3ccc(Cl)cc3)nc2n1`: inactive: -14.3%.

`CCOc1ccc2nc(N(Cc3cccnc3)C(=O)C3CCCCC3)sc2c1`: the “activity change, negative = inhibition” value is inactive: -29.3%. As for `Cc1ccc(C2CCN(C(=O)Nc3ccc(Cl)c(Cl)c3)C2)cc1` (stereo not given), the “activity change, negative = inhibition” value was inactive: 15.2%. The same measure for `Cc1ccc(-c2nnc(Nc3ccccc3)c3ccccc23)cc1S(=O)(=O)N1CCOCC1`: inactive: -9.05% [at 11.5 µM]; for `Cc1ccc(CNC(=O)c2ccc3c(c2)N(Cc2ccccc2Cl)C(=O)CS3)cc1`: inactive: -22.7%; for `Cc1cccc(N2CCN(C(=O)c3oc(=O)c4ccccc4c3-c3ccccc3)CC2C)c1` (stereo not given): inactive: -12.4%. The same measure for `COc1ccc(Cn2c(CCC(=O)Nc3ccc(C)cc3C)nc3cccnc32)cc1`: inactive: -22%; for `O=C1CC2(CCCC2)CC(=O)N1CCNCC1COc2ccccc2O1` (stereo not given): inactive: 4.44%.

Consider `COc1cccc(CNC(=O)c2cccc(-n3c(C)nc4cccnc43)c2C)c1`, for which the “activity change, negative = inhibition” value was inactive: -26.4%.

For the compound `Cc1cccc(CSc2nc(=O)c3c(n2C)NC(=O)CC3c2cc(F)cc(F)c2)c1` (stereo not given), the “activity change, negative = inhibition” value was inactive: -24.5%. The same measure for `CC(C)OCCCNC(=O)c1ccc(Cn2c(=O)c3cccn3c3cccnc32)cc1`: inactive: -2.34%; for `COc1ccc(-c2[nH]ncc2C(=O)NCc2cccc(OC)c2)cc1`: inactive: -26.6%; for `COc1cccc(CNCc2cccn2-c2nnc(N3CCN(c4ccccc4)CC3)s2)c1`: inactive: -25.4%.

`CCOc1cccc2cc(-c3cn4c(n3)sc3ccccc34)c(=O)oc12`: the “activity change, negative = inhibition” value is inactive: 1.68%. The same measure for `O=C(CCn1c(=O)c2sccc2n(CC(=O)Nc2ccccc2)c1=O)NCc1ccccc1Cl`: inactive: -8.73%; for `Cc1ccsc1CN(C(=O)COc1ccc(Cl)cc1)C1CCS(=O)(=O)C1` (stereo not given): inactive: -17.8%; for `CCn1c(=O)cc(SCC(=O)NCc2ccc(Cl)cc2)c2ccccc21`: inactive: -19.8%. Then `CCOC(=O)[C@H](CCc1ccccc1)N[C@@H](C)C(=O)N1CCC[C@H]1C(=O)O`, with inactive: 7.83%; and `CC1CCN(S(=O)(=O)c2ccc3c(ccc(=O)n3CC(=O)NCc3ccccc3Cl)c2)CC1`, with inactive: -3.64%; and `CCCCCOc1ccc(C2SC(=O)NC2=O)cc1OCC` (stereo not given), with inactive: 21.1%. For the compound `CCN(C(=O)CCNC(=O)Cn1cnc2ccccc2c1=O)c1cc(OC)ccc1OC`, the “activity change, negative = inhibition” value is inactive: -6.18%. As to `COc1ccc(NC(=O)CSC2=Nc3ccccc3N=C(c3ccc(F)cc3)C2)cc1OC`, the “activity change, negative = inhibition” value was inactive: -23.5%. Consider `Cc1ccc2c(c1)c1c(c(=O)n(-c3ccccc3C)c(=O)n1CC(=O)c1ccc(Cl)cc1)n2C`, for which the “activity change, negative = inhibition” value is inactive: -12.6%.

Turning to `O=S(=O)(c1ccc(Cl)cc1)c1nnn2c1nc(NC1CCCCC1)c1sccc12`, the “activity change, negative = inhibition” value is inactive: -2.13%.

For the compound `CCC1CN(C(=O)N2CCC(C(=O)NCc3cc(OC)c(OC)c(OC)c3)CC2)c2ccccc2O1` (stereo not given), the “activity change, negative = inhibition” value is inactive: -9.99%.

Regarding `CN(C)c1ccc(NC(=O)Cn2nnc3sc4c(c3c2=O)CCC(C(C)(C)C)C4)cc1` (stereo not given), the “activity change, negative = inhibition” value is inactive: 1.74%.

In the case of `O=C(Nc1ccc(O)c(-c2nc3ccccc3o2)c1)c1ccc(Br)cc1`, the activity change, negative = inhibition was inactive: -24.5% [at 11.5 µM]. Then `CN(C)c1cccc(C(=O)Nc2nc3ccc(S(=O)(=O)N4CCCC4)cc3s2)c1`, with inactive: -32%. The same measure for `CCSc1ncc(Cl)c(C(=O)Nc2nc3ccc(Cl)cc3s2)n1`: inactive: -5.89%; for `CN(C)c1ccc(CNC(=O)CN2C(=O)CSc3ccc(S(=O)(=O)N4CCCC4)cc32)cc1`: inactive: -2.77%; for `Cc1cccc(NC(=O)c2oc3ccccc3c2NC(=O)c2cc(=O)c3ccc(C)cc3o2)c1`: inactive: 0%. Then `COc1ccnc2[nH]cc(C(=O)C(=O)N3CCN(C(=O)c4ccccc4)C[C@@H]3C)c12`, with inactive: 8.06%; and `Cc1ccc(-n2c(=O)c3c(cnn3C)n(Cc3ccc(Cl)cc3)c2=O)cc1`, with inactive: -13.9%. Consider `CCOc1ccc(CNC(=O)c2ccc3[nH]c(C)c(C)c3c2)cc1OC`, for which the “activity change, negative = inhibition” value was inactive: -5.91%. As for `CCc1ccc(NC(=O)N(Cc2c[nH]c3ccccc23)C2CCCCC2)cc1`, the “activity change, negative = inhibition” value is inactive: 46.4%. Take `CCOc1cc(C(=O)Nc2ccc(NC(=O)c3cc4ccccc4o3)c(OC)c2)cc(OCC)c1OCC`: the “activity change, negative = inhibition” value is inactive: -19.5%. In the case of `Cc1nc2ccc(CN(C)c3ccc(C(=O)N[C@@H](CCC(=O)O)C(=O)O)s3)cc2c(=O)[nH]1`, the “activity change, negative = inhibition” value was inactive: -13.3%. The same measure for `Cc1ccc(NC(=O)Nc2c[nH]c(=O)[nH]c2=O)c(Cl)c1`: inactive: 7.77%; for `CCc1ccccc1NC(=O)CSc1nnc(-c2ccc(OC)cc2)s1`: inactive: 4.19%; for `CC(=O)Nc1ccc(NC(=O)C2CCN(S(=O)(=O)c3ccc4c(c3)CCCC(=O)N4)CC2)cc1`: inactive: -2.35%. For `Cc1cc2c(cc3c(SCc4ccc(Cl)cc4)nncn32)o1`, the “activity change, negative = inhibition” value was inactive: -14.7%. The same measure for `COc1ccc(C)cc1NC(=O)c1cnc2ccc(C)cn2c1=O`: inactive: -13.6%; for `O=c1c2ccccc2n(Cc2c(F)cccc2Cl)c(=O)n1CCc1ccccc1`: inactive: -6.79%. Then `Cc1ccn2c(=O)cc(COc3ccc(NC(=O)COc4ccc(C)c(C)c4)cc3)nc2c1`, with inactive: -4.48%; and `Cc1ccc(OCC(=O)NCC(c2ccc(Cl)cc2)N2CCOCC2)cc1C` (stereo not given), with inactive: -28.3%. The same measure for `CCOc1cc(C2c3c(oc4ccccc4c3=O)C(=O)N2Cc2ccc(OC)cc2)ccc1O` (stereo not given): inactive: 3.94%; for `O=C(CCCCn1c(=O)c2ccccc2n(Cc2cccc(F)c2)c1=O)NCc1ccc2c(c1)OCO2`: inactive: -29.9%; for `Cc1cccc(Nc2c(-c3ccsc3)nc3nc(C)cc(C)n23)c1`: inactive: -6.11%. For the compound `Cc1ccc(C(=O)c2oc3ccccc3c2NC(=O)Cc2coc3ccc(C)cc23)cc1`, the “activity change, negative = inhibition” value was inactive: -8.3%. Consider `COc1ccc(-n2cnc3cc(C(=O)NC4CCCCCC4)ccc32)cc1`, for which the “activity change, negative = inhibition” value was inactive: -29.6%. Then `CCOC(=O)c1c(C)[nH]c(C)c1S(=O)(=O)N(C)CC(=O)NCc1ccc(Cl)cc1`, with inactive: -16.1%; and `O=C(O)c1ccc2nc(-c3cc4cc(Cl)ccc4oc3=O)[nH]c2c1`, with inactive: -15.7%. Then `Cc1ccc(-c2nc3c4ccccc4n(CC(=O)NCc4ccc(F)cc4)c(=O)n3n2)cc1`, with inactive: 16.6%; and `Cn1c(SCC(=O)Nc2nc3ccccc3s2)ncc(C(=O)Nc2ccccc2)c1=O`, with inactive: 2.54%; and `CCc1nc(-c2cc(S(=O)(=O)N3CCN(c4ccccc4)CC3)ccc2OC)no1`, with inactive: -5.61%. On to `CCc1nn(CC(=O)NCCCN(CC)CC)c(=O)c2cc3occc3n12`, for which the “activity change, negative = inhibition” value was inactive: -7.93%. The same measure for `Cc1ccc2onc(CNC(=O)NCc3ccc(Cl)cc3)c2c1`: inactive: -12.6%; for `O=C1COc2cc(S(=O)(=O)CCC(=O)NC3CCCCC3)c(Cl)cc2N1`: inactive: -16.5%; for `O=C(CSc1nccn1-c1cccc(Cl)c1)Nc1cccc2ccccc12`: inactive: -31.8%.

For `CCOc1ccc(CCNC(=O)CCCc2nnc3n(CC)c(=O)c4sccc4n23)cc1`, the “activity change, negative = inhibition” value was inactive: -9.4%. Then `O=C(O)c1c(-c2ccccc2)oc2ccc(OCc3c(F)cccc3Cl)cc12`, with inactive: -25.3%; and `Cn1c(=O)c2c(-c3ccc(Br)cc3)n(Cc3ccc(F)cc3)cc2n(C)c1=O`, with inactive: -14.4%; and `COc1ccc(-c2nc3cc(C)ccn3c2NC(=O)c2cccc(F)c2)cc1`, with inactive: 13.6%. The same measure for `COc1ccc(CCNC(=O)C2CCN(Cc3nc(-c4ccc(OC)c(OC)c4)oc3C)CC2)cc1OC`: inactive: 6.68%; for `Cc1ccc(/C=C(\C#N)C(=O)Nc2cccc(Cl)c2)o1`: inactive: 77%. The same measure for `CCC1Oc2ccccc2N(CC(=O)NCc2cc(OC)ccc2OC)C1=O` (stereo not given): inactive: -14.3%; for `CCN(CC)C(=O)Cn1c(=O)n(CC2CCC(C(=O)NC)CC2)c(=O)c2sccc21` (stereo not given): inactive: 9.66%; for `O=C(CSc1nc(-c2ccccc2F)nc2cc(=O)[nH]n12)Nc1cccc(C(F)(F)F)c1`: inactive: -20.5%.
